# Assay results taken from PubChem BioAssay AID1030 (National Center for Advancing Translational Sciences (NCATS), 2008).
# About 16,000 (7.3%) of roughly 220,000 compounds were called active. Inconclusive results, whose numbers are uncertain, are shown with a selection of clear calls. The call rests on the fitted dose curve; in most records, active means well fitted inhibition curve with a large enough effect (not every such curve was filed as active); inconclusive means small, poorly fitted or top-dose-only effect, or another doubt; inactive means no such curve, though single readings can be large or run the other way. No potency is given beside an inconclusive call; the fits are too rough.
# Target: Aldehyde dehydrogenase 1A1 (Homo sapiens) (UniProt P00352)
# Chain of UniProt P00352 (P00352 whole entry, looked up): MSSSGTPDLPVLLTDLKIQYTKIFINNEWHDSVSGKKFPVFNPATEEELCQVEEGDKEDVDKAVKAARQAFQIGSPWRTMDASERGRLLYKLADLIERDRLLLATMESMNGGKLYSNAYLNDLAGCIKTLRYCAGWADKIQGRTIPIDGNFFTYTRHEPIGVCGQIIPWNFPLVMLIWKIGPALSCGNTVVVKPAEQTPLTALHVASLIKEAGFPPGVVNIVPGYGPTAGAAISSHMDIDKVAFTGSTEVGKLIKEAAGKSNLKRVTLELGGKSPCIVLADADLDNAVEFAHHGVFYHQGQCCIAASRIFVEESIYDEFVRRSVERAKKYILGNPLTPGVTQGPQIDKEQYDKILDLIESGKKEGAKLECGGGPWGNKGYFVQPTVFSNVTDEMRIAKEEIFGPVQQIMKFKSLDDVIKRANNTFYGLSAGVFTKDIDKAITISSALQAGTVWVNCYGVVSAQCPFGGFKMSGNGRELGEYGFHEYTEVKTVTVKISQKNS
# Test: qHTS Assay for Inhibitors of Aldehyde Dehydrogenase 1 (ALDH1A1);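 on activity, negative = inhibition: plate controls were no enzyme wells and a reference inhibitor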
# Details: Purified ALDH1A1, NADH fluorescence, propionaldehyde substrate; series mostly up to 75.3 µM; activity, negative = inhibition: at the top concentration
# Potency means the concentration at half of the fitted maximal effect; tags describe the fitted curve by direction and shape.
Compound,Potency,"activity, negative = inhibition"
CCOC(=O)c1c(N)sc(C(=O)N(C)C)c1C,"inconclusive [inhibitor, single point]",
CC(C)(C)NS(=O)(=O)c1ccc(CCC(=O)NCc2ccco2)cc1,"inconclusive [inhibitor, single point]",
C/C(CC(=O)Nc1ccc(Cl)c(C(F)(F)F)c1)=N\NC(N)=S,"inconclusive [inhibitor, single point]",
Cc1nc2cnc(N3CCNCC3)nc2n(Cc2ccc(F)cc2)c1=O,"inconclusive [inhibitor, partial curve]",
Cc1ccc(C)c(-n2nnnc2Sc2nc([N+](=O)[O-])nn2C)c1,"inconclusive [inhibitor, full curve, poor fit]",
CCOC(=O)c1c(NC(=O)c2cccnc2)sc(C)c1C,"inconclusive [inhibitor, single point]",
Cc1ccn(-c2cc(O)c(-n3ccc(C)n3)cc2O)n1,"inconclusive [inhibitor, partial curve]",
CCC(Sc1ncccc1C(=O)Oc1cccc([N+](=O)[O-])c1)C(=O)Nc1ccccc1OC (stereo not given),"inconclusive [inhibitor, single point]",
COc1ccc(OCC(=O)Nc2cccc(-c3nc4ccccc4o3)c2)cc1,"inconclusive [inhibitor, partial curve]",
Cc1ccnc(NS(=O)(=O)c2ccc(C(C)(C)C)cc2)c1,"inconclusive [inhibitor, single point]",
O=C1c2cccc(OCC(=O)N3CCCc4ccccc43)c2CCN1Cc1ccc(F)cc1,"inconclusive [inhibitor, single point]",
COC(=O)c1cc(CSc2nc3ccccc3[nH]2)oc1C,,inactive: -6.11%
Cc1cc(C(F)F)n2nc(C(=O)Nc3ccc(S(=O)(=O)N4CCCC4)cc3)nc2n1,"inconclusive [inhibitor, single point]",
O=C(c1ccco1)N1CCN(Cc2nc(-c3cccs3)no2)CC1,"inconclusive [inhibitor, single point]",
CN(C)c1cccc2c1c(NC(=O)Nc1ccc(F)cc1F)nn2C,"inconclusive [inhibitor, single point]",
CCN(CC)C(=O)CN(c1cc(Cl)ccc1OC)S(=O)(=O)c1ccc(C)c([N+](=O)[O-])c1,"inconclusive [inhibitor, single point]",
N#Cc1cc(C(=O)c2cc(Br)ccc2O)cn(C2CC2)c1=O,active: 14.1 µM,
CCOC(=O)/C=C/C(=O)OCC(=O)Nc1ccc(Cl)cn1,"inconclusive [inhibitor, partial curve]",
CCCn1c(SCC(=O)Nc2ccccc2C(=O)OC)nc2c1c(=O)n(C)c(=O)n2C,,inactive: -5.73%
Nc1nc(C2CC(=O)OC23CCCCC3)cs1 (stereo not given),"inconclusive [inhibitor, single point]",
CC1CN(C(=O)CN2C(=O)NC3(CCCCCCC3)C2=O)CC(C)O1 (stereo not given),"inconclusive [inhibitor, single point]",
CC(C)(C)NC(=O)CN(C(=O)c1csnn1)c1cccc2c1CCCC2,,inactive: -1.45%
CC(C)(C)c1ccc(-c2nnc(SCC(=O)c3ccc4c(c3)OCCO4)o2)cc1,"inconclusive [inhibitor, partial curve]",

Compound,Potency,"activity, negative = inhibition"
Nc1nonc1C(=O)NC(c1ccccc1)c1ccccc1,active: 14.1 µM,
CCOC(=O)N1CC=C2C(C#N)=C(N)C(C#N)(C#N)[C@H](c3cccs3)[C@H]2C1,active: 20 µM,
CCOCCCNC(=S)N1CCC(NC(=O)C2CCCCC2)CC1,,inactive: 6.18%
O=C(CNC(=S)N(Cc1ccccc1F)C1CCCCC1)NC1CC1,active: 12.6 µM,
COCCCNC(=O)CN(CCc1ccccc1)S(=O)(=O)c1ccc(OC)cc1,"inconclusive [inhibitor, partial curve]",
Cc1ccc2[nH]c3nc(SCCN4CCOCC4)nnc3c2c1,"inconclusive [inhibitor, single point]",
CCOc1cc(-c2nc3cc(C)ccn3c2NCC2CCCO2)ccc1O (stereo not given),"inconclusive [inhibitor, single point]",
c1ccc2cc(-c3csnn3)ccc2c1,"inconclusive [inhibitor, partial curve]",
Cc1ccccc1-c1cc(C(=O)Nc2sc(C)c(C)c2C(N)=O)c2ccccc2n1,"inconclusive [inhibitor, partial curve]",
CCCC12CN3CC(C)(CN(C1)C3c1ccco1)C2=O (stereo not given),,inactive: 11.8%
CC(=O)c1c(C(C)=O)c(C)n(-c2cccc([N+](=O)[O-])c2)c1C,,inactive: -6.77%
CCN1CCN(C(=S)Nc2cc(C(=O)OC)ccc2C(=O)OC)CC1,"inconclusive [inhibitor, single point]",
O=c1c(CCc2ccccc2)nc2cnc(Oc3cccc(Cl)c3)nc2n1C[C@H]1CCCO1,"inconclusive [inhibitor, partial curve]",
COc1ccc(-c2n[nH]c(=S)n2C2CCCCC2)cc1,"inconclusive [inhibitor, partial curve]",
O=C(CSc1cn(Cc2ccccc2)c2ccccc12)N1CCOCC1,"inconclusive [inhibitor, single point]",
S=C(NCC1CCCO1)N1CCN(Cc2ccccc2)CC1 (stereo not given),active: 25.1 µM,
Cc1ccc(C(=O)COC(=O)CCC(=O)Nc2cccc(Cl)c2)cc1[N+](=O)[O-],"inconclusive [inhibitor, full curve]",
Nc1ccc(N(c2ccccc2)c2ccc(N)cc2)cc1,active: 8.91 µM,
Cn1c(CNC(=O)OC(C)(C)C)n[nH]c1=S,,inactive: 9.53%
CC(=O)OCC1=C(C(=O)O)N2C(=O)C(NC(=O)c3ccc(COc4c(C)cccc4Cl)o3)C2SC1 (stereo not given),"inconclusive [inhibitor, single point]",
O=C(COC(=O)Cc1ccccc1F)Nc1cccc(F)c1,,inactive: 3.32%
Oc1c(Cl)ccc(Cl)c1Cl,,inactive: -5.25%
